Molecules are shown by their SMILES. Among all 400,000 compounds or so, about 13,000 (3.2%) were called active. Not shown: some 18% with an inconclusive outcome. Calls follow the shape of the dose curve; as a rule, active = well fitted cell-killing curve with a large enough effect; inconclusive = small, poorly fitted or top-dose-only effect, or effect the other way; inactive = flat fitted curve, though single readings scatter. Where a structure was tested more than once in an assay, its records may differ in their call. A number of entries come with more than one value. They are shown here; other results are not. The source may hold further records. Results that share an entry repeat one measurement across runs, samples, wells, individuals or studies. Marks in square brackets tell the records apart. The letters are not those of the source and start again with each entry.
Potency is read from the fitted curve at half-maximal effect.

The assay can be described thus: qHTS assay for MDR1-selective chemotherapeutics: Primary screen using the drug-selected MDR subline cells KB-V1. Also: nearly all actives have a fitted effect of over 60% in size. To be noted: KB-V1 MDR cells viability, CellTiter-Glo, 72 h; series mostly up to 46.1 µM. The text has this:
A prime difficulty in effectively treating cancer is the development of cellular resistance to multiple structurally unrelated anticancer drugs, a phenomenon known as multidrug resistance (MDR). […] Numerous strategies to overcome P-gp-mediated MDR have been explored, including the design of drugs that evade recognition and efflux, and development of inhibitors to block efflux and restore drug accumulation. […] An alternative approach is to exploit resistance by identifying drugs that target MDR cells over the non-resistant parental cells from which they were selected. […] The development of MDR1-selective agents represents a new strategy for resolving multidrug resistance, as it remains a long-standing clinical challenge for cancer chemotherapy.
Our goal is to identify compounds that selectively kill P-gp-expressing MDR cells. We will identify MDR1-selective compounds by comparing toxicity of compounds in the screening library against parental, drug-naive (KB-3-1) adenocarcinoma cells as well as their drug-selected MDR sub-line (KB-V1). The differential toxicity of compounds against these two cell lines will be used to identify MDR1-selective compounds, whose cytotoxicity is potentiated, rather than diminished, by P-gp expression. This assay will be utilized to conduct a quantitative high-throughput screen (qHTS) in collaboration with the NIH Chemical Genomics Center to identify selective agents, and probe hits arising from the screen will be validated using secondary assays and characterized through a well-established follow-up research program. This screen was run against the entire NCGC library collection of about 400,000 compounds.
NIH Molecular Libraries Probe Production Network [MLPCN]
NIH Chemical Genomics Center [NCGC]
PI: Michael Gottesman, National Cancer Institute, NIH
Briefly, 5 microL of media containing either KB-V1 cells (columns 1-2, 4-48) are dispensed into Greiner white, treated solid-bottom 1536-well assay plates (media-only control is added to column 3). Compounds are then transferred via Kalypsys pin tool equipped with 1536-pin array (10 nL slotted pins, V&P Scientific, San Diego, CA). Following addition of compound, the plates are incubated at 37 degrees C for 72 hours. CellTiter-Glo (2.5 µL/well) is then added, and the plates are read in a ViewLux reader (Perkin-Elmer, clear luminescence filter, 1 second exposure, 1x binning) following a 10 minute incubation. All cells are dispensed in DMEM phenol-red free media containing 10% FBS.
Library plates were screened starting from the lowest and proceeding to the highest concentration. Vehicle-only plates, with DMSO being pin-transferred to columns 5-48, will be inserted uniformly at the beginning and the end of each library in order to monitor and record any shifts in the background, which can be affected by reagent dispensers or loss in enzyme activity over time. Screening data will be corrected, normalized, and concentration-effect relationships will be derived by using publicly-available NCGC, NCATS curve fitting algorithms (http://ncgc.nih.gov/pub/openhts).
On the technique in general: Quantitative high-throughput screening tests each substance at several concentrations.
In the case of `CCCN1C(=O)C(Cc2nc3ccccc3c(=O)n2-c2ccccc2)c2cc(C)ccc21` (stereo unspecified), the Potency result was “active: 4.11 µM [sample A] and inactive [sample B]”.

`CCCCNC(=O)CCn1c(=O)c2ccccc2n(Cc2cc(C)ccc2C)c1=O`: the Potency result was “active: 3.26 µM [sample A] and inactive [sample B]”.

With `Cc1cc2ncn(CCCCOc3ccccc3)c2cc1C`, the Potency entry is “active: 18.4 µM [sample A] and inactive [sample B]”.

As to `COc1ccc(-c2nc3cc(C)ccn3c2NC2CCCCC2)cc1SC1CCCCC1`, the Potency entry is “active: 18.4 µM [sample A] and inactive [sample B]”.

As to `O=C1CC[C@H](O)CCN1[C@H](CSc1ccc(Br)cc1)Cc1ccccc1`, the Potency entry was “inactive [sample A] and active: 14.6 µM [sample B]”.

Turning to `O=C(C[C@H]1C(=O)N(c2ccc(F)c(F)c2)C[C@@H]1Cc1ccccc1)Nc1ccccc1`, the Potency result was “inactive [sample A] and active: 16.4 µM [sample B]”.

These data come from PubChem BioAssay AID1347076 (National Center for Advancing Translational Sciences (NCATS), 2019).
